Source: PubChem BioAssay AID1745853 (National Center for Advancing Translational Sciences (NCATS), 2022)
Some of the results follow. These are further read-outs of the screen, such as a control signal, another cell line or another target. No call is given for them.

What was measured:
Assay in all cases: Primary Screen for Target Class Profiling of Small Molecule Inhibitors of Methyltransferases
[1] = biological target: Glycine N-methyltransferase (Homo sapiens) (UniProt Q14749); conditions: purified enzyme, MTase-Glo SAH luminescence; measured here: GNMT inhibition; at 40 µM; stronger effect = lower value
Procedure, shortened: (§1)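 Each enzyme was reacted with SAM and its substrate, with compounds tested once at 40 uM; SAH formed was read by MTase-Glo luminescence.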

[2] = biological target: Guanidinoacetate N-methyltransferase (Homo sapiens) (UniProt Q14353); conditions: purified enzyme, MTase-Glo SAH luminescence; measured here: GAMT inhibition; at 40 µM; stronger effect = lower value
Procedure, shortened: as §1

[3] = biological target: Histamine N-methyltransferase (Homo sapiens) (UniProt P50135); conditions: purified enzyme, MTase-Glo SAH luminescence; measured here: HNMT inhibition; at 40 µM; stronger effect = lower value
Procedure, shortened: as §1

[4] = biological target: Nicotinamide N-methyltransferase (Homo sapiens) (UniProt P40261); conditions: purified enzyme, MTase-Glo SAH luminescence; measured here: NNMT inhibition; at 40 µM; stronger effect = lower value
Procedure, shortened: as §1

[5] = biological target: Phenylethanolamine N-methyltransferase (Homo sapiens) (UniProt P11086); conditions: purified enzyme, MTase-Glo SAH luminescence; measured here: PNMT inhibition; at 40 µM; stronger effect = lower value
Procedure, shortened: as §1
% is set by controls: 0 for no effect and ±100 for the full control effect.

Q: What does the source list for `CN(Cc1nc2ccc(F)cc2[nH]1)C(=O)c1cn(CCN)nn1`?
A: activity change, negative = inhibition [1]: -6.08%; activity change, negative = inhibition [2]: -3.2%; activity change, negative = inhibition [3]: -1.49%; activity change, negative = inhibition [4]: -9.06%; activity change, negative = inhibition [5]: -4.29%

Q: Which results are given for `CNc1ccc([N+](=O)[O-])cc1-n1cnc(-c2ccc(C(F)(F)F)cc2)c1`?
A: activity change, negative = inhibition [1]: -1.19%; activity change, negative = inhibition [2]: -16.4%; activity change, negative = inhibition [3]: -1%; activity change, negative = inhibition [4]: -31.8%; activity change, negative = inhibition [5]: -15.5%

Q: Which results are given for `COc1cccc(C(C)N(C)C(=O)c2cc(Cn3ccnc3C(C)C)[nH]n2)c1` (stereo not given)?
A: activity change, negative = inhibition [1]: -2.52%; activity change, negative = inhibition [2]: -6.54%; activity change, negative = inhibition [3]: -2.79%; activity change, negative = inhibition [4]: -11%; activity change, negative = inhibition [5]: -6.03%

Q: With `Cc1ccccc1CNC(=O)Cn1ccc2cc(S(=O)(=O)N3CCCC3)ccc21` as the compound, how does the activity change, negative = inhibition [1] read?
A: 1.07%

Q: What about the activity change, negative = inhibition [2] of the same compound?
A: 0%

Q: What about the activity change, negative = inhibition [3] of the same compound?
A: 2.93%

Q: And the activity change, negative = inhibition [4]?
A: -2.97%

Q: And the activity change, negative = inhibition [5]?
A: 0.765%

Q: Which activity change, negative = inhibition [1] does the source give for `CCCN1C(=O)c2cc(C(=O)NCCCc3ccccc3)nn2CC1(C)C(=O)NC1CCCC1` (stereo not given) here?
A: -1.33%

Q: What about the activity change, negative = inhibition [2] of the same compound?
A: 1.36%

Q: And the activity change, negative = inhibition [3]?
A: -6.76%

Q: What about the activity change, negative = inhibition [4] of the same compound?
A: -3.46%

Q: And the activity change, negative = inhibition [5]?
A: -3.02%

Q: Which activity change, negative = inhibition [1] does the source give for `CC1(C(=O)NC2CCCCC2)Cn2c(c(-n3cccc3)c3ccccc32)C(=O)N1Cc1ccccn1` (stereo not given) here?
A: 4.45%

Q: What about the activity change, negative = inhibition [2] of the same compound?
A: 0%

Q: What about the activity change, negative = inhibition [3] of the same compound?
A: 5.68%

Q: What about the activity change, negative = inhibition [4] of the same compound?
A: -37.5%

Q: And the activity change, negative = inhibition [5]?
A: 3.99%

Q: Which results are given for `COCCN1C(=O)c2cc3ccccc3n2CC1(C)C(=O)NC1CCCC1` (stereo not given)?
A: activity change, negative = inhibition [1]: 7.35%; activity change, negative = inhibition [2]: 0.536%; activity change, negative = inhibition [3]: 5.92%; activity change, negative = inhibition [4]: 11.1%; activity change, negative = inhibition [5]: 3.25%

Q: What does the source list for `CC(=O)N1CCCC(c2nn(-c3ccccn3)c(=O)[nH]2)C1` (stereo not given)?
A: activity change, negative = inhibition [1]: -3.46%; activity change, negative = inhibition [2]: -4.62%; activity change, negative = inhibition [3]: -1.21%; activity change, negative = inhibition [4]: -11.8%; activity change, negative = inhibition [5]: 9.45%

Q: `CC1CCN(C(=O)Cn2c(=O)oc3cc(S(=O)(=O)N4CC(C)CC(C)C4)ccc32)CC1` (stereo not given) was tested. Which activity change, negative = inhibition [1] did it give?
A: -0.283%

Q: And the activity change, negative = inhibition [2]?
A: 0%

Q: And the activity change, negative = inhibition [3]?
A: 0.51%

Q: What about the activity change, negative = inhibition [4] of the same compound?
A: -1.17%

Q: And the activity change, negative = inhibition [5]?
A: -10.9%

Q: With `CC(=O)N1CCCC1c1nc(C2CN(S(=O)(=O)c3cccc(C)c3)C2)no1` (stereo not given) as the compound, how does the activity change, negative = inhibition [1] read?
A: 0.409%

Q: What about the activity change, negative = inhibition [2] of the same compound?
A: -2.2%

Q: What about the activity change, negative = inhibition [3] of the same compound?
A: 1.22%

Q: And the activity change, negative = inhibition [4]?
A: -1.21%

Q: And the activity change, negative = inhibition [5]?
A: 1.36%

Q: What does the source list for `Cc1[nH]c(/C=C2\C(=O)Nc3ccc(S(=O)(=O)N(C)c4cccc(Cl)c4)cc32)c(C)c1C(=O)N1CCN(C)CC1`?
A: activity change, negative = inhibition [1]: -5.23%; activity change, negative = inhibition [2]: 24.3%; activity change, negative = inhibition [3]: -2.82%; activity change, negative = inhibition [4]: -51.7%; activity change, negative = inhibition [5]: 6.62%

Q: With `N[C@@H](CC(=O)Nc1ccc(Oc2cc(F)c(F)cc2Br)cc1)C(=O)O` as the compound, how does the activity change, negative = inhibition [1] read?
A: -3.41%

Q: And the activity change, negative = inhibition [2]?
A: -8.04%

Q: And the activity change, negative = inhibition [3]?
A: -3.98%

Q: What about the activity change, negative = inhibition [4] of the same compound?
A: -22.2%

Q: What about the activity change, negative = inhibition [5] of the same compound?
A: -43.6%

Q: Which results are given for `CC1(C)NC(=O)N(c2ccc([N+](=O)[O-])c(C(F)(F)F)c2)C1=O`?
A: activity change, negative = inhibition [1]: -10.3%; activity change, negative = inhibition [2]: 1.82%; activity change, negative = inhibition [3]: -3.89%; activity change, negative = inhibition [4]: -3.77%; activity change, negative = inhibition [5]: 3.18%

Q: For `CCOc1ccc(N2C(=O)c3cc4sc(CC)cc4n3CC2(C)C(=O)NC2CCCCCC2)cc1` (stereo not given), which activity change, negative = inhibition [1] is on record?
A: 5.96%

Q: What about the activity change, negative = inhibition [2] of the same compound?
A: 2.01%

Q: And the activity change, negative = inhibition [3]?
A: 10.6%

Q: What about the activity change, negative = inhibition [4] of the same compound?
A: 8.67%

Q: And the activity change, negative = inhibition [5]?
A: 3.29%

Q: For `CC(C)C(=O)c1cn(CC(=O)COc2ccc(Oc3ccccc3)cc2)c2ccc(C(=O)O)cc12`, which activity change, negative = inhibition [1] is on record?
A: -27.2%

Q: What about the activity change, negative = inhibition [2] of the same compound?
A: 2.71%

Q: And the activity change, negative = inhibition [3]?
A: -5.52%

Q: And the activity change, negative = inhibition [4]?
A: -29.4%

Q: And the activity change, negative = inhibition [5]?
A: -3.03%

Q: What does the source list for `CC(O)C(=O)N1CCc2[nH]nc(C(c3ccccc3)c3ccccc3)c2C1` (stereo not given)?
A: activity change, negative = inhibition [1]: -8.98%; activity change, negative = inhibition [2]: -12.4%; activity change, negative = inhibition [3]: -4.85%; activity change, negative = inhibition [4]: -17.6%; activity change, negative = inhibition [5]: -9.34%

Q: What does the source list for `CCN1CCN(c2nc3c(-c4cccc(F)c4)nnn3c3ccc(Cl)cc23)CC1`?
A: activity change, negative = inhibition [1]: -5.14%; activity change, negative = inhibition [2]: 1.4%; activity change, negative = inhibition [3]: -1.08%; activity change, negative = inhibition [4]: -0.95%; activity change, negative = inhibition [5]: -5.53%

Q: Which results are given for `O=S(=O)(NCCn1cc(-c2cncnc2)nn1)c1ccc(Cl)cc1`?
A: activity change, negative = inhibition [1]: -5.39%; activity change, negative = inhibition [2]: -6.9%; activity change, negative = inhibition [3]: -2.27%; activity change, negative = inhibition [4]: -10.6%; activity change, negative = inhibition [5]: -9.4%

Q: What does the source list for `C[C@]1(CO)CCC[C@]2(C)C3=C(CCC12)COC3` (stereo not given in full)?
A: activity change, negative = inhibition [1]: 6.81%; activity change, negative = inhibition [2]: 5.72%; activity change, negative = inhibition [3]: 11.7%; activity change, negative = inhibition [4]: -7%; activity change, negative = inhibition [5]: 2.09%

Q: With `Cc1nc(Cn2ccnc2-c2cn(C3CCNCC3)nn2)cs1` as the compound, how does the activity change, negative = inhibition [1] read?
A: -6.94%

Q: And the activity change, negative = inhibition [2]?
A: -8.81%

Q: And the activity change, negative = inhibition [3]?
A: -8.79%

Q: What about the activity change, negative = inhibition [4] of the same compound?
A: -15%

Q: What about the activity change, negative = inhibition [5] of the same compound?
A: -12.4%

Q: `CC(C)CCn1c(=O)c2ccccc2n2c(=O)n(Cc3ccccc3F)nc12` was tested. Which activity change, negative = inhibition [1] did it give?
A: -5.64%

Q: And the activity change, negative = inhibition [2]?
A: 4.87%

Q: And the activity change, negative = inhibition [3]?
A: 1.49%

Q: What about the activity change, negative = inhibition [4] of the same compound?
A: -11.3%

Q: What about the activity change, negative = inhibition [5] of the same compound?
A: -2.38%

Q: How did the activity change, negative = inhibition [1] turn out when `O=C(Cn1ccc2cc(S(=O)(=O)N3CCCCC3)ccc21)NC1CC1` was run?
A: 6.89%

Q: And the activity change, negative = inhibition [2]?
A: 0.982%

Q: What about the activity change, negative = inhibition [3] of the same compound?
A: 1.89%

Q: And the activity change, negative = inhibition [4]?
A: 11.3%

Q: What about the activity change, negative = inhibition [5] of the same compound?
A: 3.43%

Q: Which activity change, negative = inhibition [1] does the source give for `COc1cc(CC(COC2OC(CO)C(O)C(O)C2O)c2cc(/C=C/CO)cc(OC)c2O)ccc1O` (stereo not given) here?
A: 4.09%

Q: And the activity change, negative = inhibition [2]?
A: 0.42%

Q: And the activity change, negative = inhibition [3]?
A: 8.33%

Q: And the activity change, negative = inhibition [4]?
A: -8.62%

Q: And the activity change, negative = inhibition [5]?
A: -1.45%

Q: `O=C1CCC2(C(=O)NCCN3CCOCC3)CCCC=C2N1C1CCCC1` (stereo not given) was tested. Which activity change, negative = inhibition [1] did it give?
A: 1.81%

Q: What about the activity change, negative = inhibition [2] of the same compound?
A: 2.21%

Q: And the activity change, negative = inhibition [3]?
A: 0.162%

Q: And the activity change, negative = inhibition [4]?
A: -0.173%

Q: And the activity change, negative = inhibition [5]?
A: 1.18%

Q: `Cc1cccc(-c2[nH]c(CNc3ccccc3F)nc2-c2ccc3ncnn3c2)n1` was tested. Which activity change, negative = inhibition [1] did it give?
A: 2.16%

Q: What about the activity change, negative = inhibition [2] of the same compound?
A: 2.23%

Q: And the activity change, negative = inhibition [3]?
A: 3.84%

Q: And the activity change, negative = inhibition [4]?
A: -16.6%

Q: What about the activity change, negative = inhibition [5] of the same compound?
A: -0.443%

Q: Which activity change, negative = inhibition [1] does the source give for `CC1(C)CCCC2(C)C1C(O)C=C(CO)C2(O)C(=O)O` (stereo not given) here?
A: -7.78%

Q: What about the activity change, negative = inhibition [2] of the same compound?
A: 2.8%

Q: What about the activity change, negative = inhibition [3] of the same compound?
A: 5.55%

Q: And the activity change, negative = inhibition [4]?
A: -9.35%

Q: What about the activity change, negative = inhibition [5] of the same compound?
A: 3.64%

Q: Which results are given for `NC(=O)CCNC(=O)C1=C[C@@H](NC(=O)c2cccs2)[C@@H](O)[C@H](O)C1`?
A: activity change, negative = inhibition [1]: -3.34%; activity change, negative = inhibition [2]: -4.81%; activity change, negative = inhibition [3]: -0.379%; activity change, negative = inhibition [4]: -7.31%; activity change, negative = inhibition [5]: -4.47%

Q: `COc1ccccc1CNC(=O)CN(C)S(=O)(=O)c1ccc2[nH]c3c(c2c1)CCCC3` was tested. Which activity change, negative = inhibition [1] did it give?
A: 1.37%

Q: And the activity change, negative = inhibition [2]?
A: 0.708%

Q: And the activity change, negative = inhibition [3]?
A: 4.3%

Q: What about the activity change, negative = inhibition [4] of the same compound?
A: -4.97%

Q: And the activity change, negative = inhibition [5]?
A: 3.22%

Q: `CCc1nc2c(c(-c3ccc(Cl)cc3)n1)CN(Cc1ccccn1)CC2` was tested. Which activity change, negative = inhibition [1] did it give?
A: -5.98%

Q: And the activity change, negative = inhibition [2]?
A: -0.188%

Q: And the activity change, negative = inhibition [3]?
A: -3.96%

Q: And the activity change, negative = inhibition [4]?
A: -8.31%

Q: What about the activity change, negative = inhibition [5] of the same compound?
A: -8.56%
